Assay results as given in patent US7592316B2, “Peptides as NS3-serine protease inhibitors of hepatitis C virus” (Schering Corporation, priority 2000, dated 2009).

The compounds below were run against HCV NS3/NS4A protease (strain 1a) (Hepatitis C virus genotype 1a, UniProt P27958) (assay: biochemical). Settings: Table 5; HCV NS3/NS4A protease, 30° C., pH 6.5; read-out: Ki* Range.
Method: Assay for HCV Protease Inhibitory Activity:
Spectrophotometric Assay Spectrophotometric assay for the HCV serine protease was performed on the inventive compounds by following the procedure described by R. Zhang et al, Analytical Biochemistry, 270 (1999) 268-275, the disclosure of which is incorporated herein by reference. The assay based on the proteolysis of chromogenic ester substrates is suitable for the continuous monitoring of HCV NS3 protease activity. The substrates were derived from the P side of the NS5A-NS5B junction sequence (Ac-DTEDWX(Nva), where X=A or chromophoric alcohols (3- or 4-nitrophenol, 7-hydroxy-4-methyl-coumarin, or 4-phenylazophenol). Presented below are the synthesis, characterization and application of these novel spectrophotometric ester substrates to high throughput screening and detailed kinetic evaluation of HCV NS3 protease inhibitors.
Protein concentrations were determined by the Biorad dye method using recombinant HCV protease standards previously quantified by amino acid analysis. Prior to assay initiation, the enzyme storage buffer (50 mM sodium phosphate pH 8.0, 300 mM NaCl, 10% glycerol, 0.05% lauryl maltoside and 10 mM DTT) was exchanged for the assay buffer (25 mM MOPS pH 6.5, 300 mM NaCl, 10% glycerol, 0.05% lauryl maltoside, 5 μM EDTA and 5 μM DTT) utilizing a Biorad Bio-Spin P-6 prepacked column.
Protease Assay: HCV protease assays were performed at 30° C. using a 200 μl reaction mix in a 96-well microtiter plate. Assay buffer conditions (25 mM MOPS pH 6.5, 300 mM NaCl, 10% glycerol, 0.05% lauryl maltoside, 5 μM EDTA and 5 μM DTT) were optimized for the NS3/NS4A heterodimer (D. L. SalI et al, ibid.)). […] Fifty μls of prewarmed protease (12 nM, 30° C.) in assay buffer, was then used to initiate the reaction (final volume 200 μl). The plates were monitored over the length of the assay (60 minutes) for change in absorbance at the appropriate wavelength (340 nm for 3-Np and HMC, 370 nm for PAP, and 400 nm for 4-Np) using a Spectromax Plus microtiter plate reader equipped with a monochrometer (acceptable results can be obtained with plate readers that utilize cutoff filters). Proteolytic cleavage of the ester linkage between the Nva and the chromophore was monitored at the appropriate wavelength against a no enzyme blank as a control for non-enzymatic hydrolysis. The evaluation of substrate kinetic parameters was performed over a 30-fold substrate concentration range (˜6-200 μM). Initial velocities were determined using linear regression and kinetic constants were obtained by fitting the data to the Michaelis-Menten equation using non-linear regression analysis (Mac Curve Fit 1.1, K. Raner). Turnover numbers (kcat) were calculated assuming the enzyme was fully active.
The resulting data were fitted using linear regression and the resulting slope, 1/(Ki*(1+[S] o/Km), was used to calculate the Ki* value.
`C=CCCC(NC(=O)[C@@H]1[C@H]2[C@@H](CN1C(=O)[C@@H](NC(=O)NC1CCCCC1)C1Cc3ccccc3C1)C2(C)C)C(=O)C(=O)NCC=C` (some centres unmarked) was tested, and the Ki was 101 to 1000 nM.
With `C=CCCC(NC(=O)[C@@H]1[C@H]2[C@@H](CN1C(=O)[C@@H](NC(=O)NC(C)(C)CC(C)(C)C)C1Cc3ccccc3C1)C2(C)C)C(=O)C(=O)NCC=C` (some centres unmarked) the Ki was 101 to 1000 nM.
With `C=CCCC(NC(=O)[C@@H]1[C@H]2[C@@H](CN1C(=O)[C@@H](NC(=O)NCCC)C1Cc3ccccc3C1)C2(C)C)C(=O)C(=O)NCC=C` (some centres unmarked) the Ki was 101 to 1000 nM.
Compound `C=CCCC(NC(=O)[C@@H]1[C@H]2[C@@H](CN1C(=O)[C@@H](NC(=O)NCC=C)C1Cc3ccccc3C1)C2(C)C)C(=O)C(=O)NCC=C` (some centres unmarked) has a Ki of 101 to 1000 nM.
Work on `C=CCCC(NC(=O)[C@@H]1[C@H]2[C@@H](CN1C(=O)[C@@H](NC(=O)NS(=O)(=O)c1ccccc1)C1Cc3ccccc3C1)C2(C)C)C(=O)C(=O)NCC=C` (some centres unmarked) yielded a Ki of 101 to 1000 nM.
In the case of `C=CCCC(NC(=O)[C@@H]1[C@H]2[C@@H](CN1C(=O)[C@@H](NC(=O)OCCOC)C1Cc3ccccc3C1)C2(C)C)C(=O)C(=O)NCC=C` (some centres unmarked), the Ki is reported as 101 to 1000 nM.
In the case of `C=CCCC(NC(=O)[C@@H]1[C@@H]2[C@H](CN1C(=O)[C@@H](NC(=O)NC13CC4CC(CC(C4)C1)C3)C1CCCCC1)C2(C)C)C(=O)C(=O)NC/C=C/C(=O)NC(C)(C)C` (some centres unmarked), the Ki is reported as 101 to 1000 nM.
`C#CCNC(=O)C(=O)C(CCC=C)NC(=O)[C@@H]1[C@@H]2[C@H](CN1C(=O)[C@@H](NC(=O)NC13CC4CC(CC(C4)C1)C3)C1CCCCC1)C2(C)C` (some centres unmarked) showed a Ki of 1 to 100 nM.
`CCCC(NC(=O)[C@@H]1C2C(CN1C(=O)C(NC(=O)OC(C)(C)C)C1CCCCC1)C2(C)C)C(=O)C(=O)NCC(=O)NC(C)(C)C` (some centres unmarked) gave a Ki of over 1000 nM.
Compound `CCCC(NC(=O)[C@@H]1C2C(CN1C(=O)C(NC(=O)OC(C)(C)C)C1CCCCC1)C2(C)C)C(=O)C(=O)NCCC(=O)NC(C)(C)C` (some centres unmarked) has a Ki of over 1000 nM.
`CCCNC(=O)CCNC(=O)C(=O)C(CCC)NC(=O)[C@@H]1C2C(CN1C(=O)C(NC(=O)OC(C)(C)C)C1CCCCC1)C2(C)C` (some centres unmarked) gave a Ki of over 1000 nM.
`CCCC(NC(=O)[C@@H]1C2C(CN1C(=O)C(NC(=O)OC(C)(C)C)C1CCCCC1)C2(C)C)C(=O)C(=O)NCCC(=O)OC(C)(C)C` (some centres unmarked) was tested, and the Ki was over 1000 nM.
`CCCC(NC(=O)[C@@H]1C2C(CN1C(=O)[C@@H](NC(=O)OC(C)(C)C)C1CCCCC1)C2(C)C)C(=O)C(=O)NCCC1=CCCCC1` (some centres unmarked) was tested, and the Ki was over 1000 nM.
Work on `CCCC(NC(=O)[C@@H]1[C@H]2[C@@H](CN1C(=O)[C@@H](NC(=O)OC(C)(C)C)C1CCCCC1)C2(C)C)C(=O)C(=O)NCC1[C@H](C=C(C)C)C1(C)C` (some centres unmarked) yielded a Ki of over 1000 nM.
Work on `C=CCCC(NC(=O)[C@@H]1[C@@H]2[C@H](CN1C(=O)[C@@H](NC(=O)OC(C)(C)C)C1CCCCC1)C2(Cl)Cl)C(=O)C(=O)NCC=C` (some centres unmarked) yielded a Ki of 1 to 100 nM.
`C=CCCNC(=O)C(=O)C(CCC=C)NC(=O)[C@@H]1[C@@H]2[C@H](CN1C(=O)[C@@H](NS(=O)(=O)CC13CCC(CC1=O)C3(C)C)C(C)(C)C)C2(C)C` (some centres unmarked) showed a Ki of 101 to 1000 nM.
Compound `C=CCCC(NC(=O)[C@@H]1[C@@H]2[C@H](CN1C(=O)[C@@H](NC(=O)OC(C)(C)C)C1CCCCC1)C2(C)C)C(=O)C(=O)NCCCC(=O)OCC` (some centres unmarked) has a Ki of 101 to 1000 nM.
For `C=CCCNC(=O)C(=O)C(CCC=C)NC(=O)[C@@H]1[C@@H]2[C@H](CN1C(=O)[C@@H](NS(=O)(=O)N(C)C)C(C)(C)C)C2(C)C` (some centres unmarked), the Ki was over 1000 nM.
In the case of `C=CCCC(NC(=O)[C@@H]1[C@@H]2[C@H](CN1C(=O)[C@@H](NC(=O)OC(C)(C)C)C1CCCCC1)C2(C)C)C(=O)C(=O)NCCCC(=O)O` (some centres unmarked), the Ki is reported as over 1000 nM.
`C=CCNC(=O)C(=O)C(CCC)NC(=O)[C@@H]1CC(c2ccccc2)CN1C(=O)CC1CCCCC1` (some centres unmarked) was tested, and the Ki was over 1000 nM.
`C=CCNC(=O)C(=O)C(CCC)NC(=O)[C@@H]1CC(OC(C)(C)C)CN1C(=O)OCC1c2ccccc2-c2ccccc21` (some centres unmarked) gave a Ki of over 1000 nM.
With `C=CCCNC(=O)C(=O)C(CCC=C)NC(=O)[C@@H]1[C@@H]2CC(C)(C)O[C@@H]2CN1C(=O)[C@@H](NC(=O)OC(C)(C)C)C1CCCCC1` (some centres unmarked) the Ki was 101 to 1000 nM.
Work on `C=CCNC(=O)C(=O)C(CCC)NC(=O)[C@@H]1CC(OC(C)(C)C)CN1C(=O)C(NC(=O)OC(C)(C)C)c1cccc2ccccc12` (some centres unmarked) yielded a Ki of over 1000 nM.
In the case of `C=CCCC(NC(=O)[C@@H]1[C@H]2[C@@H](CN1C(=O)[C@@H](NC(=O)OCC1CC1)C1Cc3ccccc3C1)C2(C)C)C(=O)C(=O)NCC=C` (some centres unmarked), the Ki is reported as 101 to 1000 nM.
Work on `C=CCCC(NC(=O)[C@@H]1C2C(CN1C(=O)[C@@H](NC(=O)NC(CC)CC)C1Cc3ccccc3C1)C2(C)C)C(=O)C(=O)NCC=C` (some centres unmarked) yielded a Ki of 101 to 1000 nM.
In the case of `C=CCNC(=O)C(=O)C(CCC)NC(=O)[C@@H]1C2C(CN1C(=O)[C@@H](NC(=O)NC13CC4CC(CC(C4)C1)C3)C1Cc3ccccc3C1)C2(C)C` (some centres unmarked), the Ki is reported as over 1000 nM.
Work on `C=CCNC(=O)C(=O)C(CCC)NC(=O)[C@@H]1C2C(CN1C(=O)[C@@H](NC(=O)NC1CCCCC1)C1Cc3ccccc3C1)C2(C)C` (some centres unmarked) yielded a Ki of 101 to 1000 nM.
`C=CCNC(=O)C(=O)C(CCC)NC(=O)[C@@H]1C2C(CN1C(=O)[C@@H](NC(=O)NC(C)CC)C1Cc3ccccc3C1)C2(C)C` (some centres unmarked) gave a Ki of 101 to 1000 nM.
`C=CCNC(=O)C(=O)C(CCC)NC(=O)[C@@H]1C2C(CN1C(=O)[C@@H](NC(=O)NC1CCCC1)C1Cc3ccccc3C1)C2(C)C` (some centres unmarked) was tested, and the Ki was 101 to 1000 nM.
For `C=CCNC(=O)C(=O)C(CCC)NC(=O)[C@@H]1C2C(CN1C(=O)[C@@H](NC(=O)NC(C)C)C1Cc3ccccc3C1)C2(C)C` (some centres unmarked), the Ki was over 1000 nM.
`C=CCNC(=O)C(=O)C(CCC)NC(=O)[C@@H]1[C@H]2[C@@H](CN1C(=O)[C@@H](NC(=O)NC(C)C)C1CCCC1)C2(C)C` (some centres unmarked) gave a Ki of 101 to 1000 nM.
For `C=CCNC(=O)C(=O)C(CCC)NC(=O)[C@@H]1C2C(CN1C(=O)[C@@H](NC(=O)NC1CCCCC1)C1CCCC1)C2(C)C` (some centres unmarked), the Ki was 101 to 1000 nM.
`C=CCCC(NC(=O)[C@@H]1C2C(CN1C(=O)[C@@H](NC(=O)NC13CC4CC(CC(C4)C1)C3)C1CCCCC1)C2(C)C)C(=O)C(=O)NCCC(=O)OC(C)(C)C` (some centres unmarked) gave a Ki of 1 to 100 nM.
`CCCC(NC(=O)[C@@H]1C2C(CN1C(=O)C(NC(=O)OC(C)(C)C)C1CCCCC1)C2(C)C)C(=O)C(=O)NCCS(=O)(=O)Nc1ccc(C)cc1` (some centres unmarked) showed a Ki of 101 to 1000 nM.
Work on `CCCC(NC(=O)[C@@H]1C2C(CN1C(=O)C(NC(=O)OC(C)(C)C)C1CCCCC1)C2(C)C)C(=O)C(=O)NCCNC(=O)OC(C)(C)C` (some centres unmarked) yielded a Ki of 101 to 1000 nM.
`C=CCCC(NC(=O)[C@@H]1[C@@H]2[C@H](CN1C(=O)C(NC(=O)OC(C)(C)C)C1CCCCC1)C2(Cl)Cl)C(=O)C(=O)NCC=C` (some centres unmarked) was tested, and the Ki was 101 to 1000 nM.
For `C=CCNC(=O)C(=O)C(CCC)NC(=O)[C@@H]1C2C(CN1C(=O)[C@@H](NC(=O)NC13CC4CC(CC(C4)C1)C3)C1CCCC1)C2(C)C` (some centres unmarked), the Ki was 101 to 1000 nM.
For `C=CCNC(=O)C(=O)C(CCC)NC(=O)[C@@H]1[C@H]2[C@@H](CN1C(=O)[C@@H](NC(=O)NC1CCCC1)C1CCCC1)C2(C)C` (some centres unmarked), the Ki was 101 to 1000 nM.
`C=CCCC(NC(=O)[C@@H]1C2C(CN1C(=O)[C@@H](NC(=O)OC1CCCCC1)C1Cc3ccccc3C1)C2(C)C)C(=O)C(=O)NCC=C` (some centres unmarked) was tested, and the Ki was 101 to 1000 nM.
For `C=CCCC(NC(=O)[C@@H]1[C@@H]2[C@H](CN1C(=O)[C@@H](NC(=O)NC13CC4CC(CC(C4)C1)C3)C1CCCCC1)C2(C)C)C(=O)C(=O)NC/C=C/COCc1ccccc1` (some centres unmarked), the Ki was over 1000 nM.
In the case of `C=CCNC(=O)C(=O)C(CCC)NC(=O)[C@@H]1CC[C@H](C)N1C(=O)[C@@H](NC(=O)OC(C)(C)C)C1CCCCC1` (some centres unmarked), the Ki is reported as over 1000 nM.
Work on `C=CCNC(=O)C(=O)C(CCC)NC(=O)[C@@H]1CC[C@H](C)N1C(=O)[C@@H](NC(=O)OCC1CC1)C1CCCCC1` (some centres unmarked) yielded a Ki of over 1000 nM.
Compound `C=CCNC(=O)C(=O)C(CCC)NC(=O)[C@@H]1C[C@@H](OCc2cccc3ccccc23)CN1C(=O)[C@@H](NC(=O)OC(C)(C)C)C1CCCCC1` (some centres unmarked) has a Ki of over 1000 nM.
`C=CCNC(=O)C(=O)C(COC)NC(=O)[C@@H]1[C@@H]2[C@H](CN1C(=O)[C@@H](NC(=O)OC(C)(C)C)C1CCCCC1)C2(C)C` (some centres unmarked) gave a Ki of 101 to 1000 nM.
